Some of the results follow.
How the values were obtained:
HSkMC = human skeletal muscle cells; test: cytotoxicity call (relative viability < 0.9); conditions: 10 µM
HepG2 = test: cytotoxicity call (relative viability < 0.9); conditions: 10 µM
S. aureus RN4220 = test: growth inhibition call (relative growth <= 0.2); conditions: 50 µM

SMILES | cytotoxicity call (HSkMC) | cytotoxicity call (HepG2) | growth inhibition call (S. aureus RN4220)
C[C@@H]1CN([C@H](C)CO)C(=O)c2cc(NC(=O)c3ccccc3)ccc2O[C@@H](C)CCCCO[C@H]1CN(C)C(=O)Nc1ccccc1 | inactive | inactive | inactive
COCCOC(=O)N1C(=O)[C@@]2(c3cc(C#CCNC(N)=O)ccc31)[C@H](c1ccc(O)cc1)N1[C@H](c3ccccc3)[C@H](c3ccccc3)OC(=O)[C@H]1[C@@H]2C(=O)N1CCc2cc(OC)c(OC)cc2C1 | inactive | inactive | inactive
C[C@@H]1CCCCO[C@@H](CN(C)C(=O)Cc2ccccc2)[C@@H](C)CN([C@H](C)CO)C(=O)c2cc(NC(=O)Nc3ccc(C(F)(F)F)cc3)ccc2O1 | inactive | inactive | inactive
C[C@H](CO)N1C[C@H](C)[C@@H](CN(C)S(C)(=O)=O)Oc2ccc(NC(=O)C3CCCCC3)cc2CC1=O | inactive | inactive | inactive
C[C@@H]1CN([C@H](C)CO)C(=O)c2cc(NC(=O)Cc3cn(C)c4ccccc34)ccc2O[C@@H]1CN(C)CC1CCCCC1 | inactive | inactive | inactive
O=C(c1ccccc1Cl)c1cccnc1-c1nnn(Cc2cc(C(F)(F)F)cc(C(F)(F)F)c2)c1-c1ccncc1 | active | inactive | inactive
C[C@@H]1CCCCO[C@@H](CN(C)S(=O)(=O)c2ccccc2)[C@@H](C)CN([C@H](C)CO)C(=O)c2cc(NC(=O)C3CCCCC3)ccc2O1 | inactive | inactive | inactive
C[C@@H]1CN([C@H](C)CO)C(=O)c2cccc(NC(=O)C3CCOCC3)c2O[C@H]1CN(C)C(=O)Nc1ccccc1 | inactive | inactive | inactive

Reference: the antibiotic and cytotoxicity screens of Wong et al. (2023)
